Test results taken from patent publication US20240132603A1 (HARBOUR BIOMED US, published 2024).

B1: PR004974 (antibody, human IgG1, kappa)
heavy: QITLKESGPTLVKPTQTLTLTCTFSGFSLSTSGVGVGWIRQPPGKALEWLALIYWNDDKRYSPSLKSRLTITKDTSKNQVVLTMTNMDPVDTATYYCAHRRLRYSGRYYYYYGTDVWGQGTTVTVSS[human IgG1 constant region cut from this listing]
light: EIVMTQSPATLSVSPGERATLSCRASQSVSSNLVWYQQKPGQAPRLLIYGASIRATGIPARFSGSGSGTEFTLTISSLQSEDFAVYYCQQYNNWPYTFGQGTKLEIKRTVAAPSVFIFPPSDEQLKSGTASVVCLLNNFYPREAKVQWKVDNALQSGNSQESVTEQDSKDSTYSLSSTLTLSKADYEKHKVYACEVTHQGLSSPVTKSFNRGEC
notes: fully human, from single cell clone screening
B2: PR005293 (antibody, human IgG1, kappa)
heavy: QITLKESGPTLVKPTQTLTLTCTFSGFSLSTSGVGVGWIRQPPGKALEWLALIYWNDDKRYSPSLKSRLTITKDTSKNQVVLTMTNMDPVDTATYYCAHRRLRYSGRYYYYYGTDVWGQGTTVTVSSASTKGPSVFPLAPSSKSTSGGTAALGCLVKDYFPEPVTVSWNSGALTSGVHTFPAVLQSSGLYSLSSVVTVPSSSLGTQTYICNVNHKPSNTKVDKKV[human IgG1 Fc with changes cut from this listing]
light: B1 light
notes: fully human; same VH/VL as PR004974, other heavy chain entry
B3: PR005124 (antibody, human IgG1, kappa)
heavy: QVQLVESGGGVVQPGRSLRLSCVASGFTFSSYGMHWVRQAPGKGLEWVAVIWHDGSNIFYADSVKGRFTISRDNSKNTLYLQMNSLRAEDTAVYWCARHRRSDYWYYGMDVWGQGTTVTVSS[human IgG1 constant region cut from this listing]
light: [about 100 residues cut from this listing][about 120 residues cut from this listing]
notes: fully human, human IgG1 constant region
B4: PR005127 (antibody, human IgG1, kappa)
heavy: QVQLVESGGGVVQPGRSLRLSCVASGFTFSSYGMHWVRQAPGKGLEWVAVIWHDGSNIFYADSVKGRFTISRDNSKNTLYLQMNSLRAEDTAVYWCARHRRSDYWYYGMDVWGQGTTVTVSSASTKGPSVFPLAPSSKSTSGGTAALGCLVKDYFPEPVTVSWNSGALTSGVHTFPAVLQSSGLYSLSSVVTVPSSSLGTQTYICNVNHKPSNTKVDKKV[human IgG1 Fc with changes cut from this listing]
light: [about 100 residues cut from this listing][about 120 residues cut from this listing]
notes: fully human; same VH/VL as PR005124, other heavy chain entry

Columns and labels:
human CCR8 [1] = target: T1, human CCR8 (human, UniProt P51685 1-355); experiment: FACS on CHO-K1 cells overexpressing human CCR8
T1 construct: whole, on cells; construct used for the overexpressing cell lines is not described; also called hCCR8
Experimental: (§1) Cells overexpressing human CCR8 were digested with pancreatin, counted and resuspended to a cell density of 1E6 cells/mL. The cell suspension was added to a 96-well V-bottom plate at 100 μL/well and centrifuged at 300 g for 5 min, and the supernatant was discarded. The anti-CCR8 antibodies provided herein was used as a primary antibody and diluted in a 5-fold gradient with an FACS buffer (DPBS containing 2% FBS) from 200 nM. The diluted primary antibody was added at 100 μL/well to resuspend the cells, and the mixture was incubated at 4° C. for 1 h. The plate was washed twice with DPBS and centrifuged at 300×g for 5 min, and the supernatant was discarded. The secondary antibody diluted in a 1:1000 ratio with an FACS buffer was added at 100 μL/well to suspend the cells, and the mixture was incubated at 4° C. for 40 min. The plate was washed twice with DPBS and centrifuged at 300×g for 5 min, and the supernatant was discarded. DPBS was added at 200 μL/well to suspend the cells, and the mixture was loaded on an FACS machine for analysis.

human CCR8 [2] = target: T1, human CCR8; experiment: FACS, CHO-K1-hCCR8 cells
T1 sequence (P51685 whole entry): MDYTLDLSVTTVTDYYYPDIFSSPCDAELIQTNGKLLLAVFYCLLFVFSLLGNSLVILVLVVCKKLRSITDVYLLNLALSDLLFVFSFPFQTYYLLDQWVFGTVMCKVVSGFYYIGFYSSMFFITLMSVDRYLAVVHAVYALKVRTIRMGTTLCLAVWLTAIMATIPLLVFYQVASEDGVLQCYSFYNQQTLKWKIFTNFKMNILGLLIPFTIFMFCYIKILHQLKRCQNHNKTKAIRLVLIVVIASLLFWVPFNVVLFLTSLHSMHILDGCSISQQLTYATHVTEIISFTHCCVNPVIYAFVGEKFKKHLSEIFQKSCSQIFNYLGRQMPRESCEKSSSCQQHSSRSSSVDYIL
Experimental: as §1

Binder | EC50 (read off the curve) (human CCR8 [1]) [nM] | EC50 (human CCR8 [2]) [nM]
B1 | ~0.4 | –
B2 | ~0.1 | –
B3 | – | 2.52
B4 | – | 2.19
